This is one part of the list.
Legend:
Experiment in all cases: glycan array binding signal (z-score within array); higher = stronger binding
Conditions in all cases: glycan notation: IUPAC condensed, linker removed
[1] = biological target: Fuc(a1-2)[GalNAc(a1-3)]Gal(b1-4)GlcNAc(b1-3)[Fuc(a1-2)[GalNAc(a1-3)]Gal(b1-4)GlcNAc(b1-6)]GalNAc
Summary of the method: (§1)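 Negative Z-scores can be read as non-binding. The Z-score is calculated within each array and then averaged across arrays of one protein sequence at different concentrations or buffers and across linkers. Arrays, 3228 in all, were curated from the Consortium for Functional Glycomics database and kept only where the protein sequence was available.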

[2] = biological target: Fuc(a1-2)[GalNAc(a1-3)]Gal(b1-4)GlcNAc(b1-6)GalNAc
Summary of the method: as §1

[3] = biological target: Fuc(a1-2)[GalNAc(a1-3)]Gal(b1-4)[Fuc(a1-3)]GlcNAc
Summary of the method: as §1

[4] = biological target: Fuc(a1-2)[GalNAc(a1-3)]Gal(b1-4)[Fuc(a1-3)]GlcNAc(b1-3)GalNAc
Summary of the method: as §1

[5] = biological target: Fuc(a1-2)[GalNAc(a1-4)]Gal(b1-4)GlcNAc
Summary of the method: as §1

[6] = biological target: Fuc(a1-2)[GalNAc(b1-3)]Gal
Summary of the method: as §1

Fuc(a1-3)GlcNAc = biological target: Fuc(a1-3)GlcNAc
Summary of the method: as §1

[7] = biological target: Fuc(a1-3)[Gal(b1-4)]Glc6S
Summary of the method: as §1

[8] = biological target: Fuc(a1-3)[Gal(b1-4)]GlcNAc
Summary of the method: as §1

[9] = biological target: Fuc(a1-3)[Gal(b1-4)]GlcNAc(b1-2)Man
Summary of the method: as §1

[10] = biological target: Fuc(a1-3)[Gal(b1-4)]GlcNAc(b1-2)Man(a1-3)[Fuc(a1-3)[Gal(b1-4)]GlcNAc(b1-2)Man(a1-6)]Man(b1-4)GlcNAc(b1-4)GlcNAc
Summary of the method: as §1

[11] = biological target: Fuc(a1-3)[Gal(b1-4)]GlcNAc(b1-2)Man(a1-3)[Fuc(a1-3)[Gal(b1-4)]GlcNAc(b1-2)Man(a1-6)]Man(b1-4)GlcNAc(b1-4)[Fuc(a1-6)]GlcNAc
Summary of the method: as §1

[12] = biological target: Fuc(a1-3)[Gal(b1-4)]GlcNAc(b1-2)Man(a1-6)[Gal(b1-4)GlcNAc(b1-2)Man(a1-3)]Man(b1-4)GlcNAc(b1-4)GlcNAc
Summary of the method: as §1

[13] = biological target: Fuc(a1-3)[Gal(b1-4)]GlcNAc(b1-3)Gal(b1-3)[Fuc(a1-4)]GlcNAc
Summary of the method: as §1

[14] = biological target: Fuc(a1-3)[Gal(b1-4)]GlcNAc(b1-3)Gal(b1-4)[Fuc(a1-3)]GlcNAc
Summary of the method: as §1

[15] = biological target: Fuc(a1-3)[Gal(b1-4)]GlcNAc(b1-3)Gal(b1-4)[Fuc(a1-3)]GlcNAc(b1-3)Gal(b1-4)[Fuc(a1-3)]GlcNAc
Summary of the method: as §1

[16] = biological target: Fuc(a1-3)[Gal(b1-4)]GlcNAc(b1-3)GalNAc
Summary of the method: as §1

[17] = biological target: Fuc(a1-3)[Gal(b1-4)]GlcNAc(b1-4)Gal(b1-4)[Fuc(a1-3)]GlcNAc
Summary of the method: as §1

[18] = biological target: Fuc(a1-3)[Gal(b1-4)]GlcNAc(b1-4)Gal(b1-4)[Fuc(a1-3)]GlcNAc(b1-4)Gal(b1-4)[Fuc(a1-3)]GlcNAc
Summary of the method: as §1

[19] = biological target: Fuc(a1-3)[Gal(b1-4)]GlcNAc(b1-6)GalNAc
Summary of the method: as §1

[20] = biological target: Fuc(a1-3)[Gal(b1-4)]GlcNAc(b1-6)[Gal(b1-3)GlcNAc(b1-3)]Gal(b1-4)Glc
Summary of the method: as §1

[21] = biological target: Fuc(a1-3)[Gal(b1-4)]GlcNAc6S
Summary of the method: as §1

[22] = biological target: Fuc(a1-3)[Gal3S(b1-4)]Glc
Summary of the method: as §1

[23] = biological target: Fuc(a1-3)[Gal3S(b1-4)]Glc6S
Summary of the method: as §1

[24] = biological target: Fuc(a1-3)[Gal3S(b1-4)]GlcNAc
Summary of the method: as §1

[25] = biological target: Fuc(a1-3)[Gal3S(b1-4)]GlcNAc6S
Summary of the method: as §1

[26] = biological target: Fuc(a1-3)[GalNAc(b1-4)]Gal(b1-4)GlcNAc
Summary of the method: as §1

[27] = biological target: Fuc(a1-3)[GalNAc(b1-4)]GlcNAc
Summary of the method: as §1

[28] = biological target: Fuc(a1-3)[GalNAc(b1-4)]GlcNAc6S
Summary of the method: as §1

Fuc(a1-4)GlcNAc = biological target: Fuc(a1-4)GlcNAc
Summary of the method: as §1

Fuc(b1-3)GlcNAc = biological target: Fuc(b1-3)GlcNAc
Summary of the method: as §1

Gal(a1-2)Gal = biological target: Gal(a1-2)Gal
Summary of the method: as §1

Gal(a1-3)Gal = biological target: Gal(a1-3)Gal
Summary of the method: as §1

Gal(a1-3)Gal(b1-3)Glc = biological target: Gal(a1-3)Gal(b1-3)Glc
Summary of the method: as §1

Gal(a1-3)Gal(b1-3)GlcNAc = biological target: Gal(a1-3)Gal(b1-3)GlcNAc
Summary of the method: as §1

[29] = biological target: Gal(a1-3)Gal(b1-3)GlcNAc(b1-2)Man
Summary of the method: as §1

[30] = biological target: Gal(a1-3)Gal(b1-3)GlcNAc(b1-2)Man(a1-3)[Gal(a1-3)Gal(b1-3)GlcNAc(b1-2)Man(a1-6)]Man(b1-4)GlcNAc(b1-4)GlcNAc
Summary of the method: as §1

[31] = biological target: Gal(a1-3)Gal(b1-3)GlcNAc(b1-3)GalNAc
Summary of the method: as §1

[32] = biological target: Gal(a1-3)Gal(b1-3)GlcNAc(b1-6)GalNAc
Summary of the method: as §1

[33] = biological target: Gal(a1-3)Gal(b1-3)[Fuc(a1-4)]GlcNAc(b1-2)Man(a1-3)[Gal(a1-3)Gal(b1-3)[Fuc(a1-4)]GlcNAc(b1-2)Man(a1-6)]Man(b1-4)GlcNAc(b1-4)GlcNAc
Summary of the method: as §1

Gal(a1-3)Gal(b1-4)Glc = biological target: Gal(a1-3)Gal(b1-4)Glc
Summary of the method: as §1

Gal(a1-3)Gal(b1-4)GlcNAc = biological target: Gal(a1-3)Gal(b1-4)GlcNAc
Summary of the method: as §1

[34] = biological target: Gal(a1-3)Gal(b1-4)GlcNAc(b1-2)Man
Summary of the method: as §1

[35] = biological target: Gal(a1-3)Gal(b1-4)GlcNAc(b1-2)Man(a1-3)[Gal(a1-3)Gal(b1-4)GlcNAc(b1-2)Man(a1-6)]Man(b1-4)GlcNAc(b1-4)GlcNAc
Summary of the method: as §1

[36] = biological target: Gal(a1-3)Gal(b1-4)GlcNAc(b1-3)GalNAc
Summary of the method: as §1

B1: EEA (Euonymus europaeus) (protein)
chain: MASTIIATGPTYRVYCRAAPNYNMIVGKGVAFLAPIDETNELQYWYKDDTYSYIKDEAGLPAFSLVNKATGLTLKHSNHHPVPVKLVTYNPNVVDESVLWSQADDRGDGYSAIRSLTNPASHLEAAPLNDWSYNGAIIMGGVWIDAYNQQWKIEPHTG
For B1, which “glycan array binding signal (z-score)” value [1] is on record?
Its value is 0.539.

What about the “glycan array binding signal (z-score)” value [2] of the same binder?
The value was -0.234.

And the “glycan array binding signal (z-score)” value [3]?
Its value is -0.095.

What about the “glycan array binding signal (z-score)” value [4] of the same binder?
The value was -0.014.

What about the “glycan array binding signal (z-score)” value [5] of the same binder?
Its value is -0.126.

And the “glycan array binding signal (z-score)” value [6]?
Its value is -0.256.

And the “glycan array binding signal (z-score)” value (Fuc(a1-3)GlcNAc)?
The value was -0.271.

What about the “glycan array binding signal (z-score)” value [7] of the same binder?
The value was 0.013.

What about the “glycan array binding signal (z-score)” value [8] of the same binder?
Its value is -0.168.

What about the “glycan array binding signal (z-score)” value [9] of the same binder?
Its value is -0.222.

And the “glycan array binding signal (z-score)” value [10]?
The value was -0.21.

What about the “glycan array binding signal (z-score)” value [11] of the same binder?
Its value is -0.117.

What about the “glycan array binding signal (z-score)” value [12] of the same binder?
The value was -0.223.

And the “glycan array binding signal (z-score)” value [13]?
The value was -0.169.

What about the “glycan array binding signal (z-score)” value [14] of the same binder?
The value was -0.206.

What about the “glycan array binding signal (z-score)” value [15] of the same binder?
The value was -0.252.

And the “glycan array binding signal (z-score)” value [16]?
The value was -0.12.

And the “glycan array binding signal (z-score)” value [17]?
The value was -0.356.

What about the “glycan array binding signal (z-score)” value [18] of the same binder?
The value was -0.296.

And the “glycan array binding signal (z-score)” value [19]?
Its value is -0.124.

What about the “glycan array binding signal (z-score)” value [20] of the same binder?
Its value is -0.242.

What about the “glycan array binding signal (z-score)” value [21] of the same binder?
The value was -0.151.

And the “glycan array binding signal (z-score)” value [22]?
Its value is -0.163.

And the “glycan array binding signal (z-score)” value [23]?
The value was -0.263.

And the “glycan array binding signal (z-score)” value [24]?
Its value is -0.14.

What about the “glycan array binding signal (z-score)” value [25] of the same binder?
The value was -0.209.

What about the “glycan array binding signal (z-score)” value [26] of the same binder?
Its value is -0.054.

And the “glycan array binding signal (z-score)” value [27]?
Its value is -0.088.

What about the “glycan array binding signal (z-score)” value [28] of the same binder?
Its value is -0.254.

And the “glycan array binding signal (z-score)” value (Fuc(a1-4)GlcNAc)?
The value was -0.292.

And the “glycan array binding signal (z-score)” value (Fuc(b1-3)GlcNAc)?
The value was -0.156.

What about the “glycan array binding signal (z-score)” value (Gal(a1-2)Gal) of the same binder?
Its value is -0.242.

And the “glycan array binding signal (z-score)” value (Gal(a1-3)Gal)?
Its value is -0.176.

What about the “glycan array binding signal (z-score)” value (Gal(a1-3)Gal(b1-3)Glc) of the same binder?
Its value is 0.318.

And the “glycan array binding signal (z-score)” value (Gal(a1-3)Gal(b1-3)GlcNAc)?
Its value is 1.21.

What about the “glycan array binding signal (z-score)” value [29] of the same binder?
The value was 0.029.

And the “glycan array binding signal (z-score)” value [30]?
Its value is -0.115.

What about the “glycan array binding signal (z-score)” value [31] of the same binder?
The value was -0.146.

What about the “glycan array binding signal (z-score)” value [32] of the same binder?
The value was -0.22.

What about the “glycan array binding signal (z-score)” value [33] of the same binder?
Its value is -0.071.

And the “glycan array binding signal (z-score)” value (Gal(a1-3)Gal(b1-4)Glc)?
The value was -0.144.

What about the “glycan array binding signal (z-score)” value (Gal(a1-3)Gal(b1-4)GlcNAc) of the same binder?
The value was 1.01.

What about the “glycan array binding signal (z-score)” value [34] of the same binder?
Its value is -0.024.

And the “glycan array binding signal (z-score)” value [35]?
Its value is 0.698.

And the “glycan array binding signal (z-score)” value [36]?
The value was -0.175.
